Measurements published in PubChem BioAssay AID1508624 (National Center for Advancing Translational Sciences (NCATS), 2021).
The whole screen tested about 48,000 compounds, of which about 120 (0.25%) were called active. Another 4% or so got no clear call; they are omitted. Calls come from the whole dose curve; as a rule, active = well fitted activation curve with a large enough effect; inconclusive = small, poorly fitted or top-dose-only effect, or another doubt; inactive = no such curve, though single readings can be large or run the other way. This is one part of the list.

Assay: Primary qHTS for Identification of Small Molecule Activators of Huntingtin-Antisense Promoter Activity; note: nearly all actives have a fitted effect of over 55% in size
Details: HEK293 HTT-AS promoter firefly luciferase reporter, 24 h; series mostly up to 57.5 µM; activity change, positive = activation: at the top concentration
Outline: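 HEK293 Fluc reporter, 2,500 cells/well, 24 h pre-culture; cpds up to 57.5 uM final, 24 h 37 degrees C; Dual-Glo, 10 min RT; normalized vehicle = 0%, zero RLU = -100%.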

Activity change, positive = activation, inactive:
COCCNC(=O)CSc1nc2cc3c(cc2c(=O)n1CCCC(=O)NCCc1ccc(OC)c(OC)c1)OCO3 -3.98%
CCC(CC)C(=O)Nc1nnc(SCc2cc(=O)c3ccccc3[nH]2)s1 -45.3%
CCC(C)(C)NC(=O)C1CCC(CNS(=O)(=O)c2ccc3c(c2)CC(C)N3C(C)=O)CC1 (stereo not given) -24.3%
CCOCCCNC(=O)CN1C(=O)c2cccnc2Sc2ccccc21 -9.76%
CCCCNC(=O)CCCN1C(=O)CCn2nc(-c3cccn3C)cc21 -4.59%
COc1cccc(NC(=O)Cn2c(=O)n(-c3cccc(OC)c3)c(=O)c3sc4ccccc4c32)c1 -28.4%
Cc1ccc(Cl)cc1N1CCN(C2(c3ccccc3)C(=O)c3ccccc3C2=O)CC1 -11.9%
Cc1ccccc1Cn1c(=O)n(Cc2ccco2)c(=O)c2oc3ccccc3c21 -15.3%
COc1ccc(Nc2ncc(C(=O)N3CCN(c4ccc(OC)cc4)CC3)c3ccccc23)cc1 -38.5%
O=C(c1ccc2c(c1)CCN2S(=O)(=O)c1ccc(Cl)cc1)N1CCN(c2ccccc2F)CC1 -12.8%
CN(C)c1ccc(CN2CCc3nc(N4CCN(c5ccccn5)CC4)ncc3C2)cc1 -42.3%
Cc1cc(OC(C)C(=O)N2CCN(CCc3ccccn3)CC2)ccc1Cl (stereo not given) -7.14%
Cc1nc2c(c(SCC(=O)Nc3ccccc3C(F)(F)F)n1)CCC2 -34.6%
Cc1c(F)cccc1NS(=O)(=O)c1cccs1 -5.19%
CCC(CC)C(=O)Nc1ccc(OCc2cc(=O)n3ccc(C)cc3n2)cc1 -8.66%
CCOC(=O)C1CCN(C(=O)c2nn(-c3ccc(C)cc3)c(=O)c3c2c2ccccc2n3C)CC1 2.1%
CCOc1ccccc1C(N)=O -3.67%
CCOc1ccccc1N1CC(c2nc3ccccc3n2CCCOc2ccccc2)CC1=O (stereo not given) -24.3%
COc1ccccc1Cn1ccn(CC(=O)Nc2c(C)cc(C)cc2C)c(=O)c1=O -17.4%
Cc1nnc(N2CCN(c3ccc(Cl)cc3)CC2)c2c1nnn2Cc1ccc(F)cc1 -5.35%
CC(C)C(=O)NC1CC(=O)N(c2ccc3c(c2)OCCO3)C1 (stereo not given) 2.13%
Cc1c(C(=O)Nc2cccc(F)c2)sc2nc(-c3cc4ccccc4oc3=O)[nH]c(=O)c12 -7.57%
COc1ccc(NC(=O)c2c(NCc3cccs3)sc3c2CCCCC3)cc1 12.3%
CN(C1CCCCC1)S(=O)(=O)c1ccc(F)c(C(=O)Nc2ccc(C(F)(F)F)cc2)c1 -35.7%
Cc1ccc(-n2nc(C)c3c(C)cc(=O)n(CC(=O)Nc4ccc(C(C)C)cc4)c32)cc1 -3.78%
CCc1ccc(NC(=O)C(=O)NCCc2sc(-c3ccc(OC)c(OC)c3)nc2C)cc1 14%
CC1CCCCN1C(=O)c1ccc2c(c1)N(Cc1ccc(Cl)cc1)C(=O)c1ccccc1S2=O (stereo not given) -29.4%
COc1cc(OC)cc(C(=O)NCCc2csc(-c3cccc(C)c3)n2)c1 -22.7%
CCOC(=O)c1sc2ncn(CC(=O)Nc3cccc(C)c3)c(=O)c2c1C -4.65%
CCOC(=O)c1[nH]c2ccccc2c1NC(=O)c1c(F)cccc1F -11.9%
O=C(NCc1ccccc1Cl)c1ccc2c(c1)N(Cc1ccccc1)C(=O)c1ccccc1S2 -13.2%
O=C(Nc1cccc(Cl)c1)C1CCN(c2nc3ccccc3nc2C(F)(F)F)CC1 3.52%
CCc1cccc(NC(=O)c2cc(-c3ccccc3)n[nH]2)c1 14.1%
CCCN(CCC)C(=O)c1c[nH]c2ccc(S(=O)(=O)N(C)c3ccc(OCC)cc3)cc2c1=O -13.6%
COc1ccc(CCNC(=O)c2ccc3c(Cl)c4c(nc3c2)CCCC4)cc1OC -54.9%
COCCCNC(=O)C1CCCN(c2ncnc3onc(C)c23)C1 (stereo not given) -23.1%
Cc1ccc2oc(C(=O)Nc3nc(-c4ccc(F)cc4)ns3)c(C)c2c1 0.793%
CCc1ccc(C(=O)c2cn(CC(=O)Nc3ccc4c(c3)OCCO4)c3ccc(CC)cc3c2=O)cc1 -10.7%
Cc1ccccc1OCC(=O)Nc1ccc(C(=O)OCc2cc(=O)n3c(C)csc3n2)cc1 -11.2%
COc1cccc(NC(=O)CSC2=Nc3ccccc3C3=NC(CC(=O)NCc4cccs4)C(=O)N23)c1 (stereo not given) 8.32%
COc1ccc(C2c3c(oc4cc(C)cc(C)c4c3=O)C(=O)N2Cc2ccco2)cc1OC (stereo not given) -4.47%
COc1ccc(CNC(=O)CSCc2cnn(-c3ccccc3)c2-n2cccc2)cc1OC -45.8%
Cc1cccc(N2CCN(C(=O)c3cc4c(=O)[nH]c5ccc(C)cc5c4s3)CC2C)c1 (stereo not given) -68.2%
COc1ccc(Cn2c(CNC(=O)Cc3cccc([N+](=O)[O-])c3)nc3cccnc32)cc1 -11.6%
CC(=O)N1CCN(c2nc3c(F)cc(F)cc3s2)CC1 23.1%
COc1ccc(C(C(=O)Nc2ccc(C(C)C)cc2)N(C)C(=O)Cc2cccs2)cc1 (stereo not given) -14.2%
Cc1ccccc1Nc1nnc(-c2ccc(C)c(S(=O)(=O)N3CCN(C)CC3)c2)c2ccccc12 9.94% [at 11.5 µM, percent change from vehicle, -100% = no light]
COc1ccc(S(=O)(=O)NC(C)C)cc1-n1cnnn1 3.87%
O=C(Nc1ccc(OC(F)(F)F)cc1)C1CCCN(S(=O)(=O)c2ccc(Br)s2)C1 (stereo not given) -17.4%
Cc1ccc(NC(=O)Cn2c(SCc3cccc(F)c3)nc3ccncc32)c(C)c1 -12.5%
CC(C)(C)c1ccc(C(=O)Nc2nc3nc(-c4ccccc4)cc(=O)n3[nH]2)cc1 -16.4%
C#CC(C)(CC)NC(=O)Cn1nnc(-c2ccc(OCc3ccccc3Cl)cc2)n1 (stereo not given) -28.1%
COc1ccc(Br)cc1CNC(=O)CN1C(=O)CCCc2ccccc21 -11.7%
COc1cccc(NC(c2nnc(-c3ccccc3)o2)c2ccc(F)cc2Cl)c1 (stereo not given) -27.4%
COc1ccc(C(=O)NCC(c2cccnc2)N2CCN(c3ccccc3OC)CC2)cc1 (stereo not given) -53%
Cc1coc2c1c(C)cc1oc(=O)c(CC(=O)NCCc3ccc(Cl)cc3)c(C)c12 -3.33%
O=C(NCCc1ccc(Cl)cc1)C(=O)NCC(c1ccco1)S(=O)(=O)c1ccccc1 (stereo not given) -18.3%
Cc1ccc(NC(=O)C(=O)NCC(c2cccnc2)N2CCN(C)CC2)cc1 (stereo not given) -2.73%
Cc1c(C(=O)NCc2ccccc2)oc2ccc(S(=O)(=O)N3CCC(C)CC3)cc12 -17.8%
COc1ccc(C)cc1NC(=O)c1ccc2nc(Cc3ccccc3)oc2c1 -18.7%
